Source: paper PMC6919601, “Identification of Plasmodium dipeptidyl aminopeptidase allosteric inhibitors by high throughput screening” (PLoS ONE, 2019)
Screen size: about 110,000 compounds; about 230 (0.21%) showed an effect of 50% or more. Some of the results follow.

Molecular target: DPAP1 (Plasmodium falciparum, UniProt Q8IIJ9)
Experiment: primary screen, percent inhibition; read by cleavage of a fluorogenic dipeptide substrate; higher = more effect of the substance
Design: species or system P. falciparum D10 trophozoite lysates; single well
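Further: 30 min substrate incubation versus DMSO and 10 µM JCP410 controls.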

Chain of DPAP1 (Q8IIJ9 whole entry, looked up): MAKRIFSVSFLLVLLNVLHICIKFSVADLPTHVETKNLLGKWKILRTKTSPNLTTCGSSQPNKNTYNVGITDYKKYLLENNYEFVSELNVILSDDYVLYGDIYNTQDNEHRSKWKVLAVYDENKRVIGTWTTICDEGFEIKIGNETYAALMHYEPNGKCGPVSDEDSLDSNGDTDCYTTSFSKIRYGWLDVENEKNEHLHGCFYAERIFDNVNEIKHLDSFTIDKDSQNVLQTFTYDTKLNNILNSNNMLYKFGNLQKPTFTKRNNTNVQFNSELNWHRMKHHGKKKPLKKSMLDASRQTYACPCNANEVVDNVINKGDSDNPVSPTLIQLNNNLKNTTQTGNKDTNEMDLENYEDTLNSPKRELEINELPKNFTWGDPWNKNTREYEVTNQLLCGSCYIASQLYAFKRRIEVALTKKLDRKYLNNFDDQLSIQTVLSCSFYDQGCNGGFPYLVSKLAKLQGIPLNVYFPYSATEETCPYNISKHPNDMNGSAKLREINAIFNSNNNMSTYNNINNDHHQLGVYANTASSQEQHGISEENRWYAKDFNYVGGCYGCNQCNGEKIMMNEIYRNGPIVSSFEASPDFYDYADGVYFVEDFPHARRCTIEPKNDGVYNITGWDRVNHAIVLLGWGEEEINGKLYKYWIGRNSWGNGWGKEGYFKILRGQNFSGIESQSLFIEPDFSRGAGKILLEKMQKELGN

Structure (SMILES)	% Inhibition @ 10 uM [%]
COCCCNC(=O)Cc1coc2ccc3ccccc3c12	2.01
CSC1=C(C#N)C(c2ccc(Cl)cc2)C(C(C)=O)=C(C)N1 (stereo not shown)	4.33
CC(CCc1ccccc1)NC(=O)C1CCN(c2nnc(-n3cccc3)s2)CC1 (stereo not shown)	2.76
COc1ccc(C(=O)NCc2cccc3ccccc23)c(OC)n1	1.88
O=C1c2ccccc2C(=O)N1OCCCCNC(=O)C(F)(F)F	4
CCC(C)NC(=O)c1ccccc1NC(=O)c1ccc(Cl)cc1 (stereo not shown)	2.98
Clc1ccc(N2N=C(c3ccccc3)CC2c2ccccc2)cc1 (stereo not shown)	-9.87
Cc1cccc(C(=O)N[C@@H](CC2CCCCC2)C(=O)NCC#N)c1	1.35
O=C(Nc1ccc(Cl)cc1)Nc1ccccc1C(=O)Nc1ccccc1	-1.75
O=C1ON=C(c2ccc(Cl)cc2)/C1=C\c1ccc2c(c1)OCO2	-8.79
NC(=O)C1CCCN(Cc2ccc(F)c(Br)c2)C1 (stereo not shown)	-5.65
Cc1cccn2c(=O)c3cc(C(=O)NCCN4CCOCC4)n(C)c3nc12	-2.52
CN(c1c(-c2ccccc2)c(=O)c1=O)C1CCCCC1	-9.49
CCOC(=O)c1cc(-c2ccc(C)cc2)n(CCC(=O)Nc2nc(C)cs2)c1C	0.0579
O=C(CCCOc1ccc(Cl)cc1Cl)N1CCN(C(c2ccccc2)c2ccccc2)CC1	4.61
COCCNC(=O)c1c(NC(=O)c2cc(=O)c3cc(C)ccc3o2)sc2c1CCCC2	-5.31
CCC1=C(c2ccc(C)cc2)S(=O)(=O)N=C1N1CCC(C(=O)NCCN2CCN(C)CC2)CC1	5.13
O=C(COc1ccccc1F)Nc1nc(-c2ccc(S(=O)(=O)N3CCCCCC3)cc2)cs1	0.231
COc1ccc(OCCCCN2CCCC2)cc1	-8.01
Fc1ccc(-c2noc3ncnc(NCCc4ccsc4)c23)cc1	-5.55
CCOC(=O)c1cnc(Nc2nc3ccccc3o2)nc1-c1ccccc1	3.93
c1ccc2c(CN3CCSCC3)c[nH]c2c1	-6.21
O=C(O)c1ccc(NC(=O)c2ccccc2C(=O)O)cc1	-1.29
CCC1(CC(=O)c2ccccc2)C(=O)NC(=O)NC1=O	-4.96
N#C/C(=C\Nc1cc(Cl)ccc1O)c1nc2cc(Cl)ccc2o1	-1.37

Structure (SMILES)	% Inhibition @ 10 uM [%]
CC(C)(C)C1CCC(NCC2CCCO2)CC1 (stereo not shown)	0.217
COc1cccc(N(CC(=O)Nc2cccc(C)c2)S(=O)(=O)c2ccccc2)c1	3.86
N#CCCOc1cccc(OCCC#N)c1	-3.66
COc1cc(Br)ccc1NC(=O)c1cccc2c1-c1ccccc1C2=O	3.43
O=C(/C=C/c1ccco1)NCCN1CCOCC1	2.6
O=C(CCCN1C(=O)c2ccccc2C1=O)NCc1nc(-c2ccccc2)no1	-4.82
Cc1ccc2cc3cc(C(=O)N4CCCCC4C)oc3nc2c1 (stereo not shown)	-5.22
CCCN1C(=O)[C@@H]2[C@H](C1=O)[C@H](C(=O)c1ccccc1)N1c3ccccc3C=C[C@@H]21	0.161
CCOc1cc(C2C3=C(O)CC(C)(C)CC3=Nc3ccc4ncccc4c32)ccc1O (stereo not shown)	-2.88
Cc1ccccc1N1C(=O)S/C(=C2\C(=O)Nc3ccccc32)C1=O	1.92
Cc1cc(N2C(=O)C(O)=C(C(=O)c3ccco3)C2c2ccc(C(C)(C)C)cc2)no1 (stereo not shown)	17.4
O=C(O)c1cn(C2CC2)c2cc(N3CCOCC3)c(F)cc2c1=O	3.69
c1ccc2c(c1)CCN(CCCNc1nc3ccccc3n3nnnc13)C2	4.33
COc1ccc(C(=O)Nc2cccc(C)c2)cc1OC	1.48
CC1=CC2=NC(=O)/C(=C\c3ccc(OCCCOc4ccc(Cl)cc4)cc3)C(=N)N2O1	-5.1
O=C1CCCC2=C1C(c1ccc(Cl)cc1Cl)C1=C(CCCC1=O)O2	-1.03
CCOP(C)(=O)CN1CCCC1C(=O)OC (stereo not shown)	0.716
Cc1nc2ccccc2nc1SCC(=O)O	1.05
N#CC1=C(N)Oc2[nH]nc(-c3cccs3)c2C1c1ccc(F)c(Br)c1 (stereo not shown)	-1.06
COc1ccc(C(=O)Nc2cccc(NC(=O)CCc3ccccc3)c2)cc1OC	-5.13
O=S(=O)(c1ccccc1F)N1CCC(c2nc3ccccc3s2)CC1	-4.67
CCC(CC)C(=O)Nc1c(-c2ccccc2)nc2cc(C)ccn12	7.85
COc1cccc(C2=NS(=O)(=O)N(C)C(C(=O)N3CCCC3)=C2)c1	3.92
CCOc1ccc(/C=C2\N=C(c3cccs3)OC2=O)cc1	-2.5
